# This is one part of the list.
# Columns and labels:
# Assay in all cases: glycan array binding signal (z-score within array); higher = stronger binding
# Conditions in all cases: glycan notation: IUPAC condensed, linker removed
# [1] = molecular target: Neu5Ac(a2-3)GalNAc
# Outline: (§1)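 From the Consortium for Functional Glycomics database, 3228 arrays were curated, keeping only those whose protein sequence was available. Binding is given as a within-array Z-score averaged across arrays sharing a protein sequence and across linkers. Negative Z-scores can be read as non-binding.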
# [2] = molecular target: Neu5Ac(a2-3)GalNAc(b1-4)GlcNAc
# Outline: as §1
# [3] = molecular target: Neu5Ac(a2-3)[GalNAc(b1-4)]Gal(b1-4)Glc
# Outline: as §1
# [4] = molecular target: Neu5Ac(a2-3)[GalNAc(b1-4)]Gal(b1-4)GlcNAc
# Outline: as §1
# [5] = molecular target: Neu5Ac(a2-3)[GalNAc(b1-4)]Gal(b1-4)GlcNAc(b1-3)GalNAc
# Outline: as §1
# [6] = molecular target: Neu5Ac(a2-3)[Neu5Ac(a2-6)]GalNAc
# Outline: as §1
# [7] = molecular target: Neu5Ac(a2-6)Gal
# Outline: as §1
# [8] = molecular target: Neu5Ac(a2-6)Gal(b1-3)GlcNAc(b1-3)[Gal(b1-4)GlcNAc(b1-6)]Gal(b1-4)Glc
# Outline: as §1
# [9] = molecular target: Neu5Ac(a2-6)Gal(b1-4)Glc
# Outline: as §1
# [10] = molecular target: Neu5Ac(a2-6)Gal(b1-4)GlcNAc
# Outline: as §1
# [11] = molecular target: Neu5Ac(a2-6)Gal(b1-4)GlcNAc(b1-2)Man
# Outline: as §1
# [12] = molecular target: Neu5Ac(a2-6)Gal(b1-4)GlcNAc(b1-2)Man(a1-3)Man(b1-4)GlcNAc(b1-4)GlcNAc
# Outline: as §1
# [13] = molecular target: Neu5Ac(a2-6)Gal(b1-4)GlcNAc(b1-2)Man(a1-3)[Gal(b1-4)GlcNAc(b1-2)Man(a1-6)]Man(b1-4)GlcNAc(b1-4)GlcNAc
# Outline: as §1
# [14] = molecular target: Neu5Ac(a2-6)Gal(b1-4)GlcNAc(b1-2)Man(a1-3)[GlcNAc(b1-2)Man(a1-6)]Man(b1-4)GlcNAc(b1-4)GlcNAc
# Outline: as §1
# [15] = molecular target: Neu5Ac(a2-6)Gal(b1-4)GlcNAc(b1-2)Man(a1-3)[GlcNAc(b1-4)][Neu5Ac(a2-6)Gal(b1-4)GlcNAc(b1-2)Man(a1-6)]Man(b1-4)GlcNAc(b1-4)GlcNAc
# Outline: as §1
# [16] = molecular target: Neu5Ac(a2-6)Gal(b1-4)GlcNAc(b1-2)Man(a1-3)[Man(a1-6)]Man(b1-4)GlcNAc(b1-4)GlcNAc
# Outline: as §1
# [17] = molecular target: Neu5Ac(a2-6)Gal(b1-4)GlcNAc(b1-2)Man(a1-3)[Neu5Ac(a2-3)Gal(b1-4)GlcNAc(b1-2)Man(a1-6)]Man(b1-4)GlcNAc(b1-4)GlcNAc
# Outline: as §1
# [18] = molecular target: Neu5Ac(a2-6)Gal(b1-4)GlcNAc(b1-2)Man(a1-3)[Neu5Ac(a2-6)Gal(b1-4)GlcNAc(b1-2)Man(a1-6)]Man(b1-4)GlcNAc(b1-4)GlcNAc
# Outline: as §1
# [19] = molecular target: Neu5Ac(a2-6)Gal(b1-4)GlcNAc(b1-2)Man(a1-3)[Neu5Ac(a2-6)Gal(b1-4)GlcNAc(b1-2)Man(a1-6)]Man(b1-4)GlcNAc(b1-4)[Fuc(a1-6)]GlcNAc
# Outline: as §1
# [20] = molecular target: Neu5Ac(a2-6)Gal(b1-4)GlcNAc(b1-2)Man(a1-6)Man(b1-4)GlcNAc(b1-4)GlcNAc
# Outline: as §1
# [21] = molecular target: Neu5Ac(a2-6)Gal(b1-4)GlcNAc(b1-2)Man(a1-6)[Gal(b1-4)GlcNAc(b1-2)Man(a1-3)]Man(b1-4)GlcNAc(b1-4)GlcNAc
# Outline: as §1
# [22] = molecular target: Neu5Ac(a2-6)Gal(b1-4)GlcNAc(b1-2)Man(a1-6)[GlcNAc(b1-2)Man(a1-3)]Man(b1-4)GlcNAc(b1-4)GlcNAc
# Outline: as §1
binder,measurement,setting,value
rEtpA (Escherichia coli) (protein) MNRIYKLKFDKRRNELVVVSEITTGVGNAKATGSVEGEKSPRRGVRAMALSLLSGMMIMAHPAMSANLPTGGQIVAGSGSIQTPSGNQMNIHQNSQNMVANWNSFDIGKGNTVQFDQPSSSAVALNRVVGGGESQIMGNLKANGQVFLVNPNGVLFGEGASVSTSGFVASTRDIKNDDFMNRRYTFSGGQKAGAAIVNQGELTTNAGGYIVLAADRVSNSGTIRTPGGKTVLAASERITLQLDNGGLMSVQVTGDVVNALVENRGLVSARDGQVYLTALGRGMLMNTVLNVSGVVEASGMHRQDGNIVLDGGDSGVVHLSGTLQADNASGQGGKVVVQGKNILLDKGSNITATGGQGGGEVYVGGGWQGKDSNIRNADKVVMQGGARIDVSATQQGNGGTAVLWSDSYTNFHGQISAKGGETGGNGGRVETSSHGNLQAFGTVSASAKKGKAGNWLLDSADITIVNGSNVSKTETTQSPPHTQFAPTAAGSAVSNTSINNRLNNGTSVTILTHRTRTGTAQGGNITVNAAINKSNGSDVNLTLQAGGNITVNNSITSTEGKLNVNLSGARTSNGSITISNNANITTNGGDITVGTTNTSNRVNISINNTTLNASNGNIQLTGTGTDSGILFAGNNRLTASNIALTGNSTSGNAINLTGTATLNATNNITLTGSSTSGNAINLKGNNTLTASNITLTGESTSGNAINLTDTTGTTTLNATNNITMQGTRVQIKHSNITAGNFALNATVAGSEISNTTLTATNNINLAAKTNSASSGVYLKDARITSTNGSITANGTATANGKATHLDGNVTLNASNGRIKLTGNGHGSASGILFAGNNRLTASNIALTGNSTSGNAINLTGTATLNATNDITLTGSSTSGNAINLTGTATLNATNNITLTGSSTSGNAINLKGNNTLTASNITLTGESTSGNAINLTDTTGTTTLNATNNITMQGTRVQIKHSNITAGNFALNATVAGSEISNTTLTATNNINLAAKTNSASSGVYLKDARITSTNGSITANGTATANGKATHLDGNVTLNASNGRIKLTGNGHGSASGILFAGNNRLTASNIALTGNSTSGNAINLTGTATLNATNDITLTGSSTSGNAINLTGTATLNATNNITLTGSSTSGNAINLKGNNTLTASNITLTGESTSGNAINLTDTTGTTTLNATNNITMQGTRVQIKHSNITAGNFALNATVAGSEISNTTLTATNNINLAAKTNSASSGVYLKDARITSTNGSITANGTATANGKATHLDGNVTLNASNGRIKLTGNGHGSASGILFAGNNRLTASNIALTGNSTSGNAINLTGTATLNATNDITLTGSSTSGNAINLTGTATLNATNNITLTGSSTSGNAINLKGNNTLTASNITLTGESTSGNAINLTDTTGTTTLNATNNITMQGTRVQIKHSNITAGNFALNATVAGSEISNTTLTATNNINLAAKTNSASSGVYLKDARITSTNGSITTNGTATANGKATHLDGNVTLNASNGRIKLTGNGHGSASGILFAGNNRLTASNIALTGNSTSGNAINLTGTATLNATNDITLTGSSTSGNAINLTGTATLNATNNITLTGSSTSGNAINLKGNNTLTASNITLTGESTSGNAINLTDTTGTTTLNATNNITMQGTRVQIKHSNITAGNFALNATVAGSEISNTTLTATNNINLAAKTNSASSGVYLKDARITSTNGSITANGTAPANDNATYLDGNVTLNASNGSIKLTGNGNGSTSGILFAGNNTLTASNITLTGNSEVYWQKLGPEQKLISEEDLNSAVDHHHHHH,glycan array binding signal (z-score),[1],-0.34
same,glycan array binding signal (z-score),[2],-0.259
same,glycan array binding signal (z-score),[3],-0.136
same,glycan array binding signal (z-score),[4],-0.341
same,glycan array binding signal (z-score),[5],-0.345
same,glycan array binding signal (z-score),[6],-0.352
same,glycan array binding signal (z-score),[7],8.28
same,glycan array binding signal (z-score),[8],-0.416
same,glycan array binding signal (z-score),[9],0.468
same,glycan array binding signal (z-score),[10],-0.384
same,glycan array binding signal (z-score),[11],-0.359
same,glycan array binding signal (z-score),[12],0.754
same,glycan array binding signal (z-score),[13],-0.368
same,glycan array binding signal (z-score),[14],0.264
same,glycan array binding signal (z-score),[15],0.077
same,glycan array binding signal (z-score),[16],0.13
same,glycan array binding signal (z-score),[17],-0.347
same,glycan array binding signal (z-score),[18],-0.353
same,glycan array binding signal (z-score),[19],-0.306
same,glycan array binding signal (z-score),[20],0.277
same,glycan array binding signal (z-score),[21],-0.105
same,glycan array binding signal (z-score),[22],-0.361

# — the supplement of paper PMC8728848
